Results published in paper PMC10215934, “Daptomycin Pharmacokinetics in Blood and Wound Fluid in Critical Ill Patients with Left Ventricle Assist Devices” (Antibiotics, 2023).
Where two headings read alike, the source gives them in different places.

Conditions: HPLC-UV; for stability of serum samples (time at > 90% of baseline concentration): human serum
Description: Optional: serum patient sample with daptomycin (grey curve 300 nm, black curve 370 nm).
Daptomycin concentration [mg/l] […]
validation, stability was tested in human serum and water for injection at different conditions, including room temperature, refrigeration at 4° C, and freezing at -20° C as well as -80° C. For stability testing, two samples were thawed out and subsequently analyzed. Stability was defined by the time at which the samples remained at a concentration of > 90% for their baseline concentrations.
(1 picture or pasted object on this page, not shown here)

CCCCCCCCCC(=O)N[C@@H](Cc1c[nH]c2ccccc12)C(=O)N[C@H](CC(N)=O)C(=O)N[C@@H](CC(=O)O)C(=O)N[C@@H]1C(=O)NCC(=O)N[C@@H](CCCN)C(=O)N[C@@H](CC(=O)O)C(=O)N[C@H](C)C(=O)N[C@@H](CC(=O)O)C(=O)NCC(=O)N[C@H](CO)C(=O)N[C@@H]([C@H](C)CC(=O)O)C(=O)N[C@@H](CC(=O)c2ccccc2N)C(=O)O[C@@H]1C [Daptomycin]
stability of stock solutions (time at > 90% of baseline concentration) (4°C): ≥ 5 days | stability of stock solutions (time at > 90% of baseline concentration) (-20°C): ≥ 3 months | stability of stock solutions (time at > 90% of baseline concentration) (-80°C): ≥ 12 months | stability of serum samples (time at > 90% of baseline concentration) (4°C): ≥ 2 days | stability of serum samples (time at > 90% of baseline concentration) (-20°C): ≥ 3 months | stability of serum samples (time at > 90% of baseline concentration) (-80°C): ≥ 12 months | stability of serum samples (time at > 90% of baseline concentration) (room temperature): at least 24 h | stability of stock solutions (time at > 90% of baseline concentration) (room temperature): at least 24 h
